Experimental data from the supplement of paper PMC11417369.
The list shows a part of the results.

Tested on: PfAP2-HC AP2 domain (GST-tagged)
Experiment: gcPBM binding intensity (ln(normalized median fluorescence intensity)); higher = stronger DNA binding
How it was run: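 Binding intensity is the highest Masliner-normalised natural-log median intensity over replicate spots in either probe orientation. To obtain it, GST-tagged P. falciparum DNA-binding domains made in E. coli were incubated for 1 h on an Agilent 4 × 180k array of primer-extended double-stranded 36-bp intergenic genomic probes plus negative controls. Detection used Alexa488 anti-GST antibody with scanning at 488 nm.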

Sequence	gcPBM binding intensity (ln)
AAATTGTCAAAACACGCACACACATATACATAATAA [CACACA_site1743]	10.9
GTGATACGCTATAGGACACACGCTTAATAATTATAA [CACACA_site1694]	9.6
ATCATAAATTATTATACACACAATACGTGACCTATT [CACACA_site1906]	9.91
TCTTTTATATTGTAGAGTACATATTTTCAATATATA [XGTACX_site5586]	9.57
TTCTTTTATAAAAGTAGTACAATTATATTGTAATTA [XGTACX_site2855]	9.39
AAAAAAAAAAAACACACACACAAAATAAACAAACAA [CACACA_site2721]	10.5
ATTATAATTATCAAGGTGCGTGTATTATAATAAATA [GTGCAC_site9917]	9.72
TAATATAATAATAATTGTACTTTTCATAGTGTAATT [XGTACX_site8152]	9.45
GGATATTATATAAAGTGTACAAGACAAATATATACA [XGTACX_site8173]	10
ATATATCAAGGGAGTGAATGTTATGCATATGAATAT [TGCATGCA_negctrl_site573]	9.68
AATAAATTAAATAAAAATGTTTAACATAAAATATGA [GTGCAC_negctrl_site373]	9.74
AAATTAACAAACTGTAGTACTAACAATATATACAAA [XGTACX_site1772]	9.78
ATTTTATTTTTTTGAAGTACGAATTCCGAGAAGAAA [XGTACX_site43]	9.35
AAACAAAACAACTAAGTGCATAAAAATAAAATAAAT	9.99
TATAGTTCTTCTATTTGTACATATATTATTATTTAA [XGTACX_site895]	9.77
TATTCAAAAATATAAACAATGAAACAGTATAATATG [CACACA_negctrl_site1482]	9.59
TTATAATCAATGAATACACACATATATTTAATTAAT [CACACA_site3613]	9.67
AATTTTCCATAGATTGTGCACAAATTTTTATTTTGT	9.82
AAGAAAAAGACTTCATGAAAAAGAATTTTTTTAATT [TGCATGCA_negctrl_site473]	9.4
ATATATTTTTTTTTTATTTTATTATTATAATTTATC [XGTACX_negctrl_site16]	9.7
TAATATTATTTTTCAGTGCAATATAACCTTAGAATT [GTGCAC_site9417]	9.33
AACTGTAAAAAATATAAACACACATAGAAATATATA [CACACA_site8002]	10.1
ATATATATATATAATAGTACATATATTTTGAAAGAT [XGTACX_site5800]	9.77

Sequence	gcPBM binding intensity (ln)
TATGTGTGAAAAAAATGTACATATATATAAATTATA [XGTACX_site7202]	9.81
AAAAATGAAAAATGAAAAATGAAAAATGAAAAATAA [CACACA_negctrl_site695]	9.78
TATTCTTACAAAAGTAGTACAATCATTCATATTTTT [XGTACX_site631]	9.66
TAGTTTCAAGTAGGACGTACATATAAAAGGATTTTT [XGTACX_site7136]	9.6
TATATATATATAATTGTGCACATAATTTTAAACCAA	9.64
AATTAAAAAAGTAATTAACACACAATAATGTAATGC [CACACA_site9388]	10
GTTCTGTAAATACGTGCACACACAAATCACAAATGT [CACACA_site7999]	10.1
AAAGAAATGAAATATACACACATACATATATACATA [CACACA_site9335]	10.4
GATATATTTTATATATGTACATACAATGGTAAATAT [XGTACX_site2759]	9.66
TTTTTTTTCTTTTTTTGTACATAATAATATATAAAT [XGTACX_site6778]	9.59
AAAAAAAAAAAAAAAACATGCAATAAAGTGTGCGTA [TGCATGCA_site982]	9.61
TTTTGGTGGGTTACAAGTACTCAAAATGGATTGTTA [XGTACX_site1951]	9.61
TTAAATATATGTAATACGCACACTTAATATTTTGAG [CACACA_site4170]	9.63
TTTCGAAAAACAACAAGAAAAAAAAAAAAAAAAAAA [XGTACX_negctrl_site449]	8.74
TCACATACATTACTTACACACCATATTGATATATAC [CACACA_site6353]	10
TATCTCATAGTATACACACACACACGCGCACATATA [CACACA_site6917]	10.5
TGTATATATTATATTTGTACATATAAAACTATATGT [XGTACX_site4782]	9.62
TTATTTTTTAAAAGTAGTACAAATTTTTATAGAAAA [XGTACX_site7407]	9.21
ATTCCTTGGTTGTATAGTACTTTGGTTAAACATAAA [XGTACX_site6967]	9.55
CAATATTTGTTATGGGTGCAAACCGCATATATATAA [GTGCAC_site9543]	9.57
ATTAAATCCGCACGCACACACACATATTAATAAAAA [CACACA_site3992]	11.1
TAAAAAAGAAAATATATACACACCAAAAAAAAAAAA [CACACA_site3146]	9.79
AAACAAAAAAATTGAAATAAAATGAAGTAAATGAAC [TGCATGCA_negctrl_site129]	9.78

Sequence	gcPBM binding intensity (ln)
ACATGTCTTAAAAGACGTACATATAAAAGAACCCTA [XGTACX_site8940]	9.76
AATATTAAAGAATAATGTACAAAATAAAAGCAAAGA [XGTACX_site3550]	10.6
TATTAATTTCACCTTTCACATATGGAAAAAAAAAAA [CACACA_negctrl_site1243]	9.27
AATGTGCACACGCGTACACACAAAAAAAGAAAAAAA [CACACA_site7031]	10.1
TATTATTTGAGTAGTTGTACTCATTAATATATAAAA [XGTACX_site3468]	9.35
ATTAACATTTTCGTATGTACATATATAATATATGTT [XGTACX_site7184]	9.93
ATGTTTATTTATTTATGTACTTATATATTTATATAT [XGTACX_site7924]	9.93
AATAAAAATAAAAATTGTACACTTTTTTAATATTTA [XGTACX_site892]	9.5
TTTCCAAATACAACTACACACAAACAAAAATTATAT [CACACA_site4641]	10.2
CAAAATATTTATATCACACATATAAATAAAAATAAA [CACACA_site6028]	9.74
TTTTGATATATGAATATTAAGTTATATAATATTTTA [TGCATGCA_negctrl_site39]	9.46
AATTTAATTGTGAGAGTGCGTACTGCTCCACATATA	9.54
TATATATATAAATACACACACACAAAAAAAAAAAAA [CACACA_site4930]	10.5
ATGTGTTTGTATATATGTACATATTTATGTTATTTC [XGTACX_site6960]	10.3
AAAAAAAAAAAAAAAAAAAAAAAAAAATGAGATACA [GTGCAC_negctrl_site160]	9.25
TATAACAAATAAAAATGTACATATATATAATATATA [XGTACX_site6173]	9.81
ATCTTATCATTTTAAAGTACATAATTAATTCTTTTT [XGTACX_site3999]	9.66
ATAATACCAGAATAGATTTAAATGAATATTTTATTT [CACACA_negctrl_site476]	9.59
ATGATATATTTAATAGTGCACTAATTAAAATTATTA [GTGCAC_site9418]	9.46
AAAAGGATATATGAAAGTACAAAGGTATAGTATATT [XGTACX_site7385]	9.85
TACAGTAAAAATAGTTGTACTTGTTTATTTCTTCTT [XGTACX_site7674]	9.51
TAAAATATAATGATCACACATATAAACAAGTGGGTA [CACACA_site4651]	9.8
TATTCTAGAATTTTAACACACAAGAATATAAACTTT [CACACA_site6757]	9.56

Sequence	gcPBM binding intensity (ln)
ATTTTTAAATACAGTACACACATGGGTTTAAATTAT [CACACA_site2884]	9.7
GGTTATATGATAGGATGTACAATTAAAAGTAAATAT [XGTACX_site5083]	9.66
TCCTATAAACAAATTTGTACATATAAGAATATATTC [XGTACX_site3892]	9.55
TTATTATTCTTAAGGATATAACAAAAAAGAAAAATT [CACACA_negctrl_site1402]	9.41
TATTTATATTTATATACACACATATATACCTATATA [CACACA_site7820]	9.95
GATTATTTTAGAAGTACACACATTTATATATAATAA [CACACA_site5429]	9.62
TATAAACGCACCTACACACACAACGTAAATGCATTG [CACACA_site7120]	10.1
TGAACATTATAGAAAAGTACTTAGTTTTTAAAAAGA [XGTACX_site6864]	9.62
TATTCAAAACGGTATTGTACAAATTTTATAATTTAA [XGTACX_site6928]	9.45
GCCGCACCCAGATACGCACACAAGAAAAAAATATTC [CACACA_site3456]	9.8
TATGGATAAATAAATACACACATAAATTTAAATATA [CACACA_site1282]	9.86
AAATTATAAAAATGTAGTACAGACAATATATTCGTA [XGTACX_site8307]	9.82
ATAAATATTATTTTACGTACATATTTATGAAGTATT [XGTACX_site8746]	9.58
CAGGAGAGAAAATATCGTACAAGCAAAAATAAGTGG [XGTACX_site8557]	9.82
GTTTATATGTTCATAGTGCATATATGTTGATTTATT	9.89
TTTTTTTTTTTTTACTGTACTTAATAAGATTGAATA [XGTACX_site2384]	9.12
TATAAAAAAAAAAAAAAAAAAAAAAAAAAAAAAAAA [TGCATGCA_negctrl_site42]	8.96
TATTATTTTAAGATTGTTTATGTAAAGAATTATGAA [CACACA_negctrl_site445]	9.16
TGTGTATATATGCTGGTGCAACTTTAAAAAATAATC	9.59
AAATTATATACCACAGTGCAAAAGGCAGGTATACGT	9.91
